Measured values published in the supplement of paper PMC12217912.
Some of the results follow. The full chains were built here from the parent and the listed change. Values near 0.05 are background.

B1: TEV protease; numbered along this chain (parent)
chain: MGESLFKGPRDYNPISSSICHLTNESDGHTTSLYGIGFGPFIITNKHLFRRNNGTLVVQSLHGVFKVKDTTTLQQHLVDGRDMIIIRMPKDFPPFPQKLKFREPQREERICLVTTNFQTKSMSSMVSDTSCTFPSGDGIFWKHWIQTKDGQCGSPLVSTRDGFIVGIHSASNFTNTNNYFTSVPKNFMELLTNQEAQQWVSGWRLNADSVLWGGHKVFMVKPEEPFQPVKEATQL

Variants of: B1
Assay: raw area under fraction-flipped curve 0-4 h after induction (AUC4h, not background-subtracted), DNA-recorder readout of cleavage of the substrate (dimensionless); higher = more cleavage of the substrate by the protease variant
Details: temperature: 34 °C; time window: 0-4 h after rhamnose induction
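Also: Bxb1 expression induced with 0.2% (w/v) L-rhamnose at OD600 near 0.5, cultures sampled hourly, flipped fraction per protease–substrate barcode pair counted by paired-end Illumina sequencing.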

Variant | area with substrate ENDYFQS | area with substrate ENEYFQS | area with substrate ENFYFQS | area with substrate ENGYFQS | area with substrate ENHYFQS | area with substrate ENKYFQS | area with substrate ENMYFQS | area with substrate ENNYFQS | area with substrate ENRYFQS | area with substrate ENSYFQS | area with substrate ENQYFQS | area with substrate ENTYFQS | area with substrate ENWYFQS | area with substrate ENVYFQS | area with substrate ENPYFQS | area with substrate ENYYFQS | area with substrate ENIYFQS
L22N | 0.0524 | 0.0515 | 0.0331 | 0.0745 | 0.0546 | 0.0251 | 0.0354 | 0.048 | 0.0455 | 0.0435 | – | – | – | – | – | – | –
K46V | 0.0776 | – | – | 0.0505 | 0.0639 | – | – | 0.0418 | 0.0574 | 0.0428 | 0.0475 | 0.0064 | 0.0531 | – | – | – | –
R51K | 0.0849 | 0.0574 | – | 0.0485 | – | 0.0503 | – | 0.0534 | 0.0615 | 0.0766 | 0.0393 | – | – | 0.0768 | – | – | –
T55F | 0.0653 | 0.094 | 0.0623 | 0.0669 | 0.0608 | 0.0543 | 0.0495 | 0.0577 | – | 0.0597 | 0.0585 | – | – | 0.0648 | 0.0663 | 0.06 | –
H62S | 0.0705 | 0.0453 | – | 0.0636 | – | 0.0546 | 0.0888 | 0.0549 | 0.061 | 0.0547 | 0.12 | 0.0551 | – | 0.0818 | – | – | –
V67C | 0.0741 | 0.0659 | – | 0.059 | – | – | 0.0973 | 0.0574 | 0.0586 | 0.0488 | 0.0664 | 0.0624 | 0.0462 | – | – | 0.0592 | 0.139
I86D | 0.0324 | 0.0341 | – | 0.0348 | – | 0.0326 | – | – | – | 0.0225 | – | – | – | 0.0401 | 0.0268 | – | 0.0227
F92E | 0.0659 | – | 0.0578 | 0.0605 | – | 0.0354 | – | – | 0.0577 | 0.0534 | – | 0.0491 | 0.0526 | 0.0607 | – | 0.0577 | –
K98M | 0.0619 | 0.0608 | 0.0834 | 0.0866 | 0.0564 | 0.0612 | – | 0.0579 | 0.0704 | 0.0615 | 0.0443 | – | 0.0347 | – | – | 0.0627 | 0.0889
M122A | 0.0812 | 0.0604 | 0.0696 | 0.0741 | 0.0716 | – | – | – | – | 0.0634 | 0.0534 | 0.0717 | 0.0464 | – | 0.0575 | 0.0762 | 0.12
F133C | 0.04 | – | – | – | – | – | – | 0.0552 | 0.053 | 0.0497 | 0.0565 | 0.098 | 0.0048 | 0.0246 | – | – | 0.11
S135P | 0.0816 | 0.0564 | – | 0.062 | 0.0734 | – | – | 0.0672 | – | 0.0525 | 0.0516 | 0.157 | – | 0.0562 | – | 0.0592 | –
T147P | 0.0662 | 0.0589 | 0.0597 | 0.0654 | 0.0764 | 0.0626 | 0.0588 | 0.0618 | 0.0651 | 0.0597 | 0.0506 | 0.0707 | – | 0.058 | 0.0738 | – | 0.0724
S158A | 0.0605 | 0.0639 | – | 0.0705 | 0.0766 | – | – | – | 0.0657 | 0.0585 | 0.0588 | 0.0686 | 0.0699 | 0.0704 | – | – | 0.106
R160S | 0.0378 | – | – | 0.0748 | – | – | 0.089 | – | – | – | 0.0686 | – | – | – | 0.0558 | – | –
I164N | 0.0553 | 0.0532 | – | – | – | 0.0546 | – | 0.0524 | 0.0573 | 0.0608 | 0.0582 | 0.0603 | – | 0.0523 | 0.0561 | 0.0601 | 0.0553
